# Values marked as one replicate rest on one cluster of the flow cell; about a third of the high ones do not repeat.
# Test system: ATP
# Assay: switch fluorescence ratio, 500 uM ATP over buffer (Cy3 cluster intensity, sum of 5 cycles each) (fold (ratio)); higher = stronger signal-on switching upon ATP binding; sequences stand for … in TCGTCGGCAGCGTCAGATGTGTATAAGAGACAGTTTTTTTTTTTTTTTTTTTTTTTTT…TC
# Conditions: aptamer strand: ATP DNA aptamer (quencher-CACCTGGGGGAGTATTGCGGAGGAAGG + anchor), 100 nM annealed; ATP concentration: 500 uM; one replicate
# Procedure, shortened: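 Switching-strand clusters labelled with Cy3 on a modified Illumina MiSeq flow-cell were annealed to 100 nM quencher-labelled ATP aptamer, imaged in selection buffer, and re-imaged after 15 min with 500 uM ATP at 22 °C. This was done over five cycles with NaOH stripping and re-annealing in between. The fluorescence ratio is summed target-cycle over summed buffer-cycle Cy3 intensity per cluster, averaged per switch-domain sequence, excluding clusters outside 100-1000 RFU.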
# 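Also: ATP exposure 15 min at 22 °C before imaging.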
row,Sequence,switch fluorescence ratio
1,ACATTAGTCA,1
2,TGCACGTGGG,0.996
3,GAGTCGATCT,0.963
4,GATTTCCGCC,1.64
5,AGGAGGTCTC,1.02
6,TGTTAGCATA,1.03
7,AGGATTCGAT,0.978
8,GAATTTTGGT,1.01
9,AGCGAATGCC,1.05
10,CACTAAGCGG,1.03
11,AGTGACCATG,0.983
12,ACCACCCTT,1.06
13,GTGTGTAGTC,0.999
14,GGATTGCTGA,0.994
15,GGCGTATATA,0.989
16,ACGCATCGCC,1.2
17,GAGGGGATGG,1.06
18,GTCCGTTGC,1.18
19,ATCAGTCTTA,0.982
20,CAGTGGCATG,0.994
21,AGGTTATGGC,1.08
22,GTGAGGCAGA,1.09
23,AAGTTTCAAT,0.991

row,Sequence,switch fluorescence ratio
1,AATTAATAAA,1
2,TGGTCATACG,1
3,TGGGCCCTGT,0.982
4,TTCTCAGGGT,0.967
5,AATCGGCCCT,1.04
6,CCGGTGTCAT,1.21
7,GCGAGCTACC,1.01
8,CGGGGTCCAG,0.983
9,TCAAGCGTCC,1.11
10,GCAGGACTTT,1.02
11,TATAGTGTTA,0.996
12,AGGCGACTGC,0.998
13,TCGAAAATCC,1.03
14,CGAATATCCA,1.01
15,AGGAACACAA,1.06
16,GACCACACCC,1.35
17,AGGCTTATGC,0.986
18,CTTCGTTAGA,0.991
19,GACGCCCGTG,0.954
20,CCGTGGATGG,1.17
21,GGATCAGTGG,0.986
22,GAGTTGGTAC,1.05
23,ATACATAGTA,1.1

row,Sequence,switch fluorescence ratio
1,AGACGGGGG,1
2,TAGAAACTGC,1.5
3,TTCTAGGGTA,1.04
4,AATCAGGGCT,0.997
5,AAACGCGAAC,4.3
6,TAGTTCCGAG,1.18
7,AGGGATGCCA,1.01
8,GGGTCAAATC,0.964
9,TCGATGGCTG,0.997
10,GCCATTGGCT,0.983
11,ACCACCCCAC,1.32
12,GTTTTCATAA,1.03
13,TATATATACT,1.04
14,TACTGTGTTC,1.05
15,TTAGATCTCC,1.03
16,CGACAAAAGC,4.08
17,ATATTACTCC,1.25
18,GGTTTATAAT,1.01
19,GTACTGAACC,1.24
20,GTAAGCAGTT,1
21,CTTGTTATAT,1.05
22,GACTAGGGCA,0.982
23,TCGGCATTTC,1.62

row,Sequence,switch fluorescence ratio
1,AGCTATGGGC,1.03
2,CCGTCACTTG,1.01
3,CCGGGAGCCA,2.16
4,CTTGATCGAC,1.02
5,TGGGAGCTCA,0.979
6,ATTTTAGTAG,1
7,GCTGGATTCC,1.02
8,CCATGGGTG,1.56
9,TCGGCCCTTG,0.997
10,ATCACTGACA,1.35
11,AGGACTGTTA,1.08
12,AGCTCCATGG,1.03
13,CGGGAGGCGA,0.947
14,TTCATGCGGA,1.04
15,CTGCATAGAG,1.08
16,CAAGATCGTA,0.958
17,ACGAGTATTT,1.02
18,CCTAGATT,1.02
19,GGTCGAGGGC,0.997
20,ATGGATTGGG,0.987
21,ATGGGGTGAG,0.986
22,TATGTCAGCC,1.02
23,TTTCATTCCA,1.03

row,Sequence,switch fluorescence ratio
1,ACATAAAGTG,0.988
2,AATACACTTC,1.04
3,TCCCTGTCAC,1.16
4,CATAACACCA,1.05
5,GGGAGATATA,1.06
6,TCGGGCATCC,0.98
7,TATATACGGC,1.05
8,GAGGACGTTT,1.03
9,TTCATTGAGG,0.995
10,CCTACTAGGC,1.18
11,AGCCCGAGTA,0.996
12,ATGTGCCGTG,1.03
13,TAGTCTTCGG,1.01
14,CGCGAAACCG,1.01
15,TAGTATATCC,0.952
16,AATGTTACCA,1.06
17,GGGACAAGTG,0.974
18,CGTCTACAGT,0.986
19,AGTTGCGAAA,1.01
20,AATGAATCTC,1.05
21,TCGTAGTAGG,0.94
22,AAAGGCGCTA,0.978
23,TAGGCGTGAG,1

row,Sequence,switch fluorescence ratio
1,TACCACTAAT,1.05
2,ATAGATTGTA,0.995
3,CAGCCCCCTG,1.08
4,CTTTGGAGGA,0.987
5,ACAATATTTC,1.05
6,CGGATTAAGG,1.01
7,TTGTTGGAG,0.978
8,GAGTAGCAGG,0.992
9,ACAAAAAATA,0.998
10,GATGCCATGC,1.24
11,CTTAATTGTC,1.01
12,GACGTATTCA,0.996
13,CGGGGCCCAT,1
14,TCTTGGGTA,1.01
15,GGTGCTCAGG,1.08
16,AGAACGGAGG,0.983
17,AACCGGGATT,1.06
18,CGATCCCCCC,1.14
19,GAGTTCCCCG,1.08
20,CCTCAGTCCG,1.15
21,ACGTTATCCG,1.03
22,GGTTAGTCAT,1.02
23,AGATCGGTTA,0.949

row,Sequence,switch fluorescence ratio
1,GGCTCCAC,1.07
2,CAGAGTCACC,1.04
3,TTACAAGTAG,1
4,TAGTGCATTA,1.05
5,AGCCAAAACA,0.96
6,AGCCAGAAAG,1.12
7,TACGATCCGG,1.04
8,AAGTCTCATT,0.974
9,GATCCTCGCA,1.17
10,GACTAAGGGC,1.05
11,GCCGACGGGA,1.29
12,AGGAACGACT,0.967
13,ATCGGTGACG,1.01
14,CTAAACTCGC,1.05
15,GACAGAACCT,1.73
16,GGTTGATCAA,0.924
17,GTCATTTGTG,1.01
18,CAAATTTCC,1.1
19,GAAACACCTG,1.14

# — the supplement of paper PMC10126150
